# According to ChEMBL document CHEMBL4888484, “Replenishing the malaria drug discovery pipeline: Screening and hit evaluation of the MMV Hit Generation Library 1 (HGL1) against asexual blood stage Plasmodium falciparum ,using a nano luciferase reporter read-out” (2022):
# About 540 (0.36%) of roughly 150,000 compounds showed an effect of 50% or more. This is one part of the list.
# System: Plasmodium falciparum
# Assay: Primary screen in NF54 nanoGlo assay, in single point, at 2uM, 72h; a lower Z score goes with more inhibition
# Type: functional, Erythrocyte
# Details: timepoint 72 hour
Structure (SMILES),% Inhibition,Z score
COC1(CNC(=O)[C@H]2CCN(C(=O)c3ccccc3)C2)CCC(C(F)F)CC1 (stereo not given in full),-8%,1.12
CN(C)S(=O)(=O)N(CCN1CCCC1)[C@H]1CCN(S(=O)(=O)c2ccc(F)cc2)C1,-2%,0.29
COc1ccc(C(=O)N2CCC3(CC2)C[C@@H]3NS(C)(=O)=O)cc1F,8%,-1.27
CC(C)(C)OC(=O)N1CCc2ccc(NCc3cc[nH]n3)cc2C1,-2%,0.31
CCN(C[C@H]1COc2ccccc2O1)c1ccc(C#N)cn1,-14%,2.69
Cc1ccc(-c2nc(CNC(=O)Cn3cncn3)[nH]c2-c2ccccn2)cc1,-14%,1.3
Cc1noc2ncnc(N3CCCC[C@H]3c3nccs3)c12,-7%,0.7
Nc1nc(N2CC[C@@]3(CCCN(C4CCCCC4)C3=O)C2)c2cn[nH]c2n1,-3%,0.45
CCN(Cc1nc2c(s1)C[C@@H](C)CC2)C(=O)c1cc(OC)no1,-3%,0.35
CCC(CC)CNC[C@](C)(O)c1cnn(C)c1,-16%,1.4
CCOc1ccc(NC(=O)c2c(NCc3ccc(OC)cc3)sc3c2CCC3)cc1,-5%,0.85
Cc1nnc(CN2C(=O)N[C@]3(CC(C)(C)OC3(C)C)C2=O)s1,-3%,0.41
O=C1NCCN1CCNc1nc(-c2c[nH]c3ccccc23)nc2c1CNC2,-10%,1.22
Cc1n[nH]c(CCC(=O)NCc2nc(C)c(C)n2C)c1C,0%,0.04
CCc1nonc1NC(=O)COc1ccc(Cl)cc1Cl,-7%,0.92
Cc1nnc2n1C[C@@H](C(=O)OC(C)(C)C)NC2,-8%,0.9
Cc1noc(C)c1CN(C)Cc1cc(C2CC2)on1,-6%,0.89
Cc1ccnc(N2C(=O)C3CCCCC3C2=O)c1 (stereo not given),-11%,2.04
CCCN(CC#N)C(=O)C(C)(C)Oc1ccc(C#N)cc1,-13%,1.94
COCCC(C)CCS(=O)(=O)N1CCCC(C2OCCO2)C1 (stereo not given),2%,-0.29
Cc1nccn1CC1CCN(C(=O)Nc2cc(F)c3c(c2)NC(=O)CO3)CC1,-32%,2.78
CCN(CC)CC1(NC(=O)c2ccc(C)cc2OC)CC1,8%,-1.55
COCCN1CCN(c2cc(N3CCN(CCOC)C(C)C3)n3ncnc3n2)CC1C (stereo not given),-3%,0.26
O=C(Cc1cccs1)NC[C@@H](c1cccnc1)S(=O)(=O)c1ccccc1,-12%,1.53
CN(C)[C@H]1CCN(CC(=O)NCc2cc(F)cc(C(F)(F)F)c2)C1,2%,-0.36
Cc1ccnc(N2CCCC3C(NC(=O)C4CCC4)C(C)(C)C32)n1 (stereo not given),-10%,1.4
CCN1CCN(Cc2cnc(N3CCCC3)s2)[C@H]2CS(=O)(=O)C[C@H]21,1%,-0.17
Cc1nc(C(=O)NCCc2ccc3[nH]ncc3c2)c(C)o1,10%,-1.15

Structure (SMILES),% Inhibition,Z score
CC[C@H](C)N(CC(=O)O)C(=O)c1noc2c1CCCC2,-6%,0.86
Cc1cc(S(N)(=O)=O)c(F)cc1F,4%,-0.63
COc1ccccc1CCN(C)C(=O)NCc1ccsc1,8%,-1.16
CCc1noc(C)c1C(=O)N1CCc2cc(S(=O)(=O)N(CC)CC)ccc21,4%,-0.54
C[C@H]1CCCN(S(=O)(=O)NCCCN2CCCC2=O)C1,-3%,0.44
COCc1cc(=O)c2c(=O)n(-c3ccccc3)[nH]c2[nH]1,1%,-0.24
COc1ccc(C2CN(C(=O)c3ccccc3F)CC2C(=O)N2CCN(c3ccccc3C)CC2)cc1 (stereo not given),-5%,0.72
CC(CN[C@@H]1C=C[C@H](CO)C1)c1ccccc1 (stereo not given in full),-6%,0.88
CCOc1ccnc(NCCN2CCC(O)CC2)n1,-12%,1.34
COCCS(=O)(=O)[C@@H](C)C(=O)N(C)C1CCCCC1,-4%,0.41
CCOc1cc(N2CCOCC2)c(OCC)cc1NC(=O)c1ccoc1,-4%,0.57
O=C1c2cccc3cccc(c23)C(=O)N1C1CCCCC1,-3%,0.61
COCCOCCS(=O)(=O)Nc1ccccc1C=CCO,-8%,0.99
CCn1ncnc1CN1C[C@H](NC(=O)C2CCCCC2)[C@@H](C2CC2)C1,-3%,0.45
CCNc1cc(F)ccc1C(=O)N[C@@H](C)C(=O)OC,-11%,1.36
Cc1ccc([C@H](C)NC(=O)c2ncccc2O)s1,-5%,0.47
CCn1c(=O)c([C@@H]2C(=O)Nc3ccccc32)nc2ccccc21,-7%,1.04
C[C@@]1(C(=O)NC2CCCCCCC2)Cn2c(cc3ccccc32)C(=O)N1CCN1CCOCC1,5%,-0.73
COc1nccc(C(=O)N2CCC[C@@H]3CCCC[C@@H]32)n1,-9%,1.67
COc1c(C)cc(C(=O)[C@H]2CCCN(C(=O)CCc3c(C)nn(C)c3C)C2)cc1C,-15%,2.18
CN1CCN(Cc2cnn(C)c2)C[C@@]12CCC(=O)N(CC1CC1)CC2,12%,-1.63
O=S1(=O)CCN(CCc2ccccn2)CC1,-9%,1.14
Fc1cccc(-c2nc(C3CC3)ncc2-c2nnnn2-c2ccc(Cl)cc2)c1,-6%,0.84
O=C(NC1CC1)[C@@H]1CCCN1CCOc1cc(Cl)ccc1Cl,-10%,1.6
CN(c1ccc(C(=O)NCc2ccco2)c(Cl)c1)S(C)(=O)=O,10%,-1.33
O=C(Nc1ccncc1)N[C@H]1CC(=O)N(c2ccc3c(c2)OCCO3)C1,-14%,2.62
COc1cc(OC)cc(C(=O)N2CCN(Cn3ncsc3=S)CC2)c1,0%,0.04
